Reference: a compilation of properties of binary mixtures (doi:10.1016/j.jct.2021.106484)
Some of these densities may be calculated back from excess volumes.

Assay: xn = mol fraction of the nth substance listed
Details: 100 kPa

Cn1cc[n+](CCO)c1.F[B-](F)(F)F + O
mass density [kg/m3]
Details	x1 = 0.0092	x1 = 0.0206	x1 = 0.0347	x1 = 0.0521	x1 = 0.0775	x1 = 0.114	x1 = 0.1639	x1 = 0.2531	x1 = 0.4278	x1 = 1
293.15 K	1027.4	1058.8	1096.4	1134.6	1170.3	1203.7	1239.5	1276.7	–	1368.5
298.15 K	1025.8	–	1094	–	–	1200.4	1236	1272.5	–	1363.3
303.15 K	1024.1	1054.7	1091.5	1129.1	1164.2	1197	1232.4	1269.3	–	1360
308.15 K	–	1052.4	1088.9	1126.2	–	1193.7	–	1265.5	–	1355.9
313.15 K	1020	–	1086.2	1123.2	–	1190.3	–	1261.8	–	1351.8
318.15 K	–	1047.5	–	1120.2	1154.4	1186.9	1221.5	1258.5	–	–
323.15 K	1015.3	–	–	1116.5	1151	–	1217.9	1254.4	1297.5	–

O + Cn1cc[n+](CCO)c1.F[B-](F)(F)F
Details	mass density [kg/m3]
323.15 K, x2 = 0	988
